The full ranking holds about 1,800 sequences; the median of “median log2 fold change of GCK-ALFA target abundance (FLAG IP / Myc IP barcode read proportion)” is about 0.14, and the lowest 2% start at about -0.84. Some of the results follow.
T1: TRAF2, Q12933
T1 chain: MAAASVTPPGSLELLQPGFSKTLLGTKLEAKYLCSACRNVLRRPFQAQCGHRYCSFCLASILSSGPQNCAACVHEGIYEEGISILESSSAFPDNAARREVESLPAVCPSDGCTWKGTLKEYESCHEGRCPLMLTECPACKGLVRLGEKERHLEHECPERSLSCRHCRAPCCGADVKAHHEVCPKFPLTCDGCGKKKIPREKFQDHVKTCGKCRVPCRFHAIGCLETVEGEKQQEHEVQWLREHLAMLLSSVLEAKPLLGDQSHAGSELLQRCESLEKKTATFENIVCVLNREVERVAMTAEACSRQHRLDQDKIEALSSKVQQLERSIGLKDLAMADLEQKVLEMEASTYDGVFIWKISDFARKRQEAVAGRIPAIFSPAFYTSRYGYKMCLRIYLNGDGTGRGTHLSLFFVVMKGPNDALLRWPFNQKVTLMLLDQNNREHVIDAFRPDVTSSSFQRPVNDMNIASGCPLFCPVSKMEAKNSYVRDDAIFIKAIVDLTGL

B1: traf2_out_16_177_1453 (protein)
chain: ELDRLMDRLVILSELRRAALLAVEGRGDEYREHLARARELAEEAGDEEALALADRIEALIAENTPEAKEELKKLAEELQKEAQKLALEAEKLIKERAKEE
B2: traf2_out_20_38_2002 (protein)
chain: SMEEEEEERLKEIIDVANEAYDEATERIEALRAAGKSVEEIAAIVRAEVAELLDAAGLEEERDELLADIDRALSSPDALRLFARILARARALVKQKELNE
B3: traf2_out_14_149_1256 (protein)
chain: SATEEKKKALEEAAEIFKEIAEMLKKAIEEGSTDLDKEKLKELLKKAREILSKQGFVVSHLLAFEDLLEKTKEFTKEKLEELLKLAKAAIESLEVLREML
B4: traf2_out_16_104_1425 (protein)
chain: AAAAAAAFDAAIARLNAIADEANRIANRAMKLYEKASEEKKTALSDLLVEASELRREALAAAQAAEAARAAGGDLAAVKAALAALEARLAELKARLKELE
B5: traf2_out_20_3_2070 (protein)
chain: SELEAQLEKELEAAEALLKEAAALADPETAARLEALIARLKASRELSYDDRLVAVSEVRREVRELAEEARAAGDEELAALLEAAADELNRAAQLLYDILQ
B6: traf2_out_20_3_2202 (protein)
chain: EELEKKLEEELEKAEELLKKAKELADPETAKKLDELIKRLKESRELSYEDRLVELSEIRREVLLLAQQAKAEGNEELAKVLEEAAEAINRAKNLVYKIIE
B7: traf2_out_18_167_1859 (protein)
chain: MEELEKKLEEATDELVELSDIRRALLLILQALEESREKALELAEEELKRHPDSEILKETLEVLKTKSDEETRAFLEEKIEELQKKMNEKYKEVEKLRKEL
B8: traf2_out_17_162_1537 (protein)
chain: SETEEELKKLKEELKEIEKEKKELEEKSKKLSELSKEEISDLLVEVSELKRKARELAEKLKKLAEKTGSEEAKKLAKEAEEIAEELQKIANKIYKELEKK
B9: traf2_out_17_178_1664 (protein)
chain: SKEEERKKISELTDKLIDLAEKAADEALALLEAEGDATEEELALLREARRRGSANDVKALITRWIPKSKNAAALQALLDEFTKKYRELSKGIAEAYKKYE
B10: traf2_out_9_17_2606 (protein)
chain: SAAEEAARQAILDAAREVLAELVEEGYITEEEAEEILAKVRERLAAGKSPEEVVASFIGDIASTLLTKSDLPLSEINRIVGRAYRALRARLAAAAKAAAA
B11: traf2_out_8_174_2564 (protein)
chain: AELENLKTAANLGLEYAEKIEEIKEKVKELEKESLEKALKYAEEKIEELLKELDAKSEEAKKTEDPELATLINREINSMKQRAENMLEALKIRAEAKKKA
B12: traf2_out_18_167_1839 (protein)
chain: EEELEKKRQELSDRLVDLSAVRRAARRALHALETAPALVPAELARLEEEAERVPELQPLVAAARAALEAGDREGLRAELERLIEEAQRLMNEVMDELEAL
B13: traf2_out_17_162_1593 (protein)
chain: GSLEEELKRIEERLEELEKKLKELEEKLKNIEKLSKEELTDLLVEASEAKREALELLEEVESLKSKLDPETYEELSRRAEELAEKFQRIANAFYDELLKK
B14: traf2_out_9_108_2596 (protein)
chain: MTEEEKLEEIFKKVLELAEEFLKDPRLTPEQKEQLQQAIENAKKLYEKGLKRTAIITLAIDMARIAYDVGEEAVRELLERLEEIDPRAASAARRMVELLK
B15: traf2_out_20_3_2060 (protein)
chain: SELEKEIEKLEKELEKKLKELEKLLPPERAAELKKAWEKVKKAKEEGLDEYLIAVSELRRLLLELSEEAREEGDEETAKLLEEAAELAQRIAHLIYKKIE
B16: traf2_out_14_154_1271 (protein)
chain: DELYDELTYHSRMSRAYEAVVERLETEGPEAAAAQAEAAAAELKKLVPEKAAEIDAARDRILAALAGSPEEQAALAAELRELSERYSKKARELYKEIEKK
B17: traf2_out_11_169_850 (protein)
chain: EEKEKNRKIIDKALELEDEAKEKLKEHALALAKEAGLDVAEVEAIFEANKGKSLSAVAAALVRWFREQGKEEAAEKVLAKYEELKEEINKKMTEFIKELE
B18: traf2_out_14_149_1265 (protein)
chain: SKVKEVAERVLKLLKEVVEKAKEAIKTGTEEAREELFELIKEAAEEIEKLGKEIGVYFSSVAELKHLASQRDLPLEELLKRLEEILERSEVTAEFLIKEA
B19: traf2_out_17_178_1686 (protein)
chain: SKEEYRKEISEKTDELIDLTEATGAELLARARAEGRLSPEELAALEAARRRGSNRTFLALARRAVPRLASAAEAQALLDAFEAKARELEKKIAEAYKKYE
B20: traf2_out_13_95_1043 (protein)
chain: SAELAKKIMAISDQMLDEVLAALEEAAAAAADDPELVAVLREARRLAETRGISEAIHLLREAAAAHPEHAELLNALIERLEAIRRRAGREVAKLIKEEEE
B21: traf2_out_20_3_2158 (protein)
chain: SELEKKAEEALDEAIALLAEAAALADPATAARLEALRERVEASRELPPEDRLVVLSEVRREVLALAEAAAAAGRTDLAAVLAAAADALNRAMNLVYKLIE
B22: traf2_out_17_178_1682 (protein)
chain: TKEEHRKKISEYTDKLIDLTEATGAELLARARADGTISPEELAALEAARRRGSNRTFLALARRIVPKLADAAAAQALLDAFEAEARELEKKIAEEYEKYE
B23: traf2_out_20_3_2219 (protein)
chain: EELKEEIKKLLEEIRKLLKEAAPLLPAEDLAELTALLKEAEKALETDLTDALVYLSELRRRALALAQRAAAAGDAELAALLNEAAELANKAAGKVLKAIE
B24: traf2_out_5_182_2314 (protein)
chain: SAEEELRRELLERLRRVNRELARATARAMDAIEEAKARGDEEFVEEIRRLLNRAIAAVSKLEQMVLEGRIDPEEFERLLEEAERAIEELNRLIEEYEAEV
B25: traf2_out_17_178_1749 (protein)
chain: DKEELKKKINELNNEIADVADETMEKILALAEADPSVTPEALAAIRAAVKRGSANTAYALYMEASTDPAKKAEAEKIYAEARKKMNELADEMLKAIEEYK
B26: traf2_out_11_155_767 (protein)
chain: SKELEIWQELNDKVDAIVDEAYEKVKELILTDKSLTEEEKKELLDILETNRKYGLRTAFSKLIEKYKELGKEDLAKKVQEILDEAQKKMSKAAIEAEKKI
B27: traf2_out_16_62_1469 (protein)
chain: SEEKEELRKKADEKIDLAQELRDAVVAYLRGEDPEAALAKLEALAKKLGEEAKALVDALKAARADPEHREEHLAKAEELAVEIRNRLAKEALELEEKAKK
B28: traf2_out_9_17_2626 (protein)
chain: AEAEAYERETLLEAVREVTEKLLAKGYITEEQAEEIIEKTRELLEKGLPLEEVRNHVLADIASVLLWDSGLSVAEANKAVGEARKVLDAAIAEVEAARAA
B29: traf2_out_17_178_1717 (protein)
chain: SKEEYRKKISELTDKLIDLSERAARELLELAEREGTLSPEELAALREARRRGSPNDTLALGRRIAPKLRSREEAEALIRRFEEESRRLAKEIAEAYEKYE

Target: T1, TRAF2, Q12933
Assay: median log2 fold change of GCK-ALFA target abundance (FLAG IP / Myc IP barcode read proportion) (log2 ratio); each designed protein is fused to an ALFA-tag nanobody in HEK293 cells to bring the named protein to FLAG-tagged glucokinase (GCK); Myc marks an untargeted standard; higher = target protein stabilised (more abundant)
Conditions: target protein: 3xFLAG-MCP-GCK-ALFA reporter; HEK293 landing pad (RPLP)
In short: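 HEK293 landing-pad cells received a recombined binder library fused to the ALFA nanobody and were induced with 2 μg mL^−1 doxycycline, then transfected with a plasmid encoding a FLAG-tagged target and a Myc-tagged standard. Lysates were collected after 48 h for anti-FLAG and anti-Myc immunoprecipitation, and the circular RNA barcodes were reverse transcribed, amplified and sequenced. Target abundance for each binder is the median log2 ratio of FLAG to Myc barcode read proportions. Barcodes had to reach a proportion of at least 10^−7 in both replicates, each binder needed at least 3 barcodes per replicate, a pseudocount of 10^−6 was applied, and the two replicates were pooled.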

Binder	median log2 fold change
B1	-0.267
B2	-1.43
B3	0.297
B4	0.118
B5	0.184
B6	-0.0195
B7	0.344
B8	0.962
B9	0.178
B10	-0.00895
B11	0.432
B12	0.184
B13	-0.0834
B14	-0.138
B15	0.136
B16	0.31
B17	-0.596
B18	0.297
B19	0.139
B20	-0.166
B21	-0.207
B22	0.193
B23	0.444
B24	0.104
B25	0.0527
B26	0.206
B27	0.467
B28	-0.0713
B29	0.274

From the supplement of paper PMC12632987
